# Source: paper PMC4336329 (PLoS ONE, 2015)
# About 14,000 (4.5%) of roughly 310,000 compounds showed an effect of 50% or more. The effect is printed as a negative number. Some of the results follow.
# Target: human ether-à-go-go-related gene (hERG) potassium channel (human, UniProt Q12809)
# Experiment: primary screen, population patch clamp on CHO cells stably expressing hERG
# 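Note: peak tail current of the secondary pulse compared with the same well before compound.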
# human ether-à-go-go-related gene (hERG) potassium channel, sequence (Q12809 whole entry, looked up): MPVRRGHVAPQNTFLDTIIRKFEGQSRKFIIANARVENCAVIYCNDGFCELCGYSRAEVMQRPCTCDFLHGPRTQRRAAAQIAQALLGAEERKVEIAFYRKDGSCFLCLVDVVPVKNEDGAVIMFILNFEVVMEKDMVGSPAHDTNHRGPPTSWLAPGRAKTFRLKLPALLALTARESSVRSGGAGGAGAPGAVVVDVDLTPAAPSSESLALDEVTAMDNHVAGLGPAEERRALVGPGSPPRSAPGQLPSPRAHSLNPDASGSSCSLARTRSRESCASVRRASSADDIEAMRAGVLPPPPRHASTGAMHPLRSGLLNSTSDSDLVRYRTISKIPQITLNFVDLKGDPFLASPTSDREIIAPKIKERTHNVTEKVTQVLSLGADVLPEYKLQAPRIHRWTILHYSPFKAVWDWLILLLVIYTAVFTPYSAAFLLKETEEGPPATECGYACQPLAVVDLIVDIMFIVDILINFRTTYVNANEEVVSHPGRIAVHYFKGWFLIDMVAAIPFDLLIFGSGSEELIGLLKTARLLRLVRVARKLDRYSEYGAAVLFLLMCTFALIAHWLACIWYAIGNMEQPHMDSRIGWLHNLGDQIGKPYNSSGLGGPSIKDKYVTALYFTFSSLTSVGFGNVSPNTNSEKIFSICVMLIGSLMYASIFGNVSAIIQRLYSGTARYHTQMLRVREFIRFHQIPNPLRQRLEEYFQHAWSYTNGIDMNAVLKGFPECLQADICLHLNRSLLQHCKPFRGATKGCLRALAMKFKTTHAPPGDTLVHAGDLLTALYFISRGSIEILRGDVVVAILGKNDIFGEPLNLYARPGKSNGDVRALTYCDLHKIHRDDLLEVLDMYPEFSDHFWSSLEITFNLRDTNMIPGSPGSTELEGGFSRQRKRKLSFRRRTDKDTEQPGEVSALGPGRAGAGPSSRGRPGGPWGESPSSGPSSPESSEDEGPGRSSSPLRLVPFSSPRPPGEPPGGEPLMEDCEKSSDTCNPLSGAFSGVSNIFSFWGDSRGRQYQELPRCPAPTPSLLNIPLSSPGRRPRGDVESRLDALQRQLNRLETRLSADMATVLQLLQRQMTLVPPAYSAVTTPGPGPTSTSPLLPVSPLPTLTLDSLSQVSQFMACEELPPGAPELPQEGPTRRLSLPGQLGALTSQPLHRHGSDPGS
row,SMILES,"hERG current change (%, negative = inhibition) at 10uM [%]"
1,COC(=O)c1ccc(S(=O)(=O)N2C3CCC2CC(NC(=O)NC2CCCCC2)C3)cc1 (stereo not shown),-3.58
2,Cn1c2c(c(=O)n(C)c1=O)C(C(F)(F)F)(C(F)(F)F)N=C(CCC1CCCCC1)N2,-0.915
3,CCCNS(=O)(=O)c1ccc(OCC(=O)N2CCN(c3ccccc3)CC2)cc1,-42.8
4,C/C(=N\NC(=O)c1cccnc1)c1ccccc1,10.9
5,O=C(CCCN1C(=O)c2ccccc2C1=O)Nc1cccc(S(=O)(=O)NC2=NCCC2)c1,13.5
6,Fc1ccc(SCCc2ccccn2)cc1,8.06
7,NS(=O)(=O)c1cc(C2(O)NC(=O)c3ccccc32)ccc1Cl (stereo not shown),2.05
8,O=C(CN1CCC(NC(=O)C2CC2)CC1)Nc1cccc(F)c1,-18.9
9,Cn1c(=O)c(C(=O)NNC(=O)c2ccccc2F)c(O)c2ccccc21,20.9
10,CC(C)(C)c1cc(CN2CCCCC2)cc(C(C)(C)C)c1O,-50.7
11,Cc1ccnc(NC(=O)c2ccc(NC(=O)c3ccco3)cc2)c1,0.683
12,O=C1CC(SCCO)C(=O)N1c1ccc(Oc2ccccc2)cc1 (stereo not shown),-14.8
13,COc1cccc(/C=N/NC(=O)CN(CCc2ccccc2)S(=O)(=O)c2ccc(NC(C)=O)cc2)c1,0.26
14,CC(=O)Nc1ccc(Nc2nc(C)nc3c2nnn3Cc2ccccc2Cl)cc1,-16.8
15,CCOC(=O)C#CC(CCc1ccccc1)OS(N)(=O)=O (stereo not shown),11.8
16,CN(c1cccc(NC(=O)CN(c2cccc(Cl)c2)S(=O)(=O)c2ccc(Cl)cc2)c1)S(C)(=O)=O,14.8
17,CCOC(=O)CN1C(=O)S/C(=C/c2ccc(O)c([N+](=O)[O-])c2)C1=O,0.587
18,COc1ccc(C(=O)N/C(=C\c2cn(C)c3ccccc23)C(=O)NCCCN2CCOCC2)cc1OC,5.38
19,COc1ccc(C(C(=O)NC2CCCC2)N(C(=O)c2snc(C(N)=O)c2N)c2cccc(O)c2)cc1 (stereo not shown),14.5
20,CCn1nc(CC(C)C)cc1C(=O)N1CCCC(Nc2ccc(OC)cc2)C1 (stereo not shown),9.27
21,COc1ccc(-c2cc(C(=O)Nc3c(C)n(C)n(-c4ccccc4)c3=O)c3ccccc3n2)c(OC)c1,6.95
22,Cc1c2c(c(C)n1C)C(C(=O)NC1CCCCC1)N(Cc1ccccc1)C2=O (stereo not shown),-6.12
23,Cc1ccc(CNC(=O)C2CC(=O)N(C3CCCCCCC3)C2)cc1 (stereo not shown),6.14
24,O=C(NCC1CCCCC1)c1cccc(S(=O)(=O)N2CCCC2)c1,5.68
25,CC(C)n1cnnc1SCC(=O)NCC(=O)Nc1ccc(F)cc1,11.2
26,CCc1ccc(NC(=O)c2cccnc2)cc1,13.6
27,CC(=O)NC(Nc1nc2c(s1)CCCC2)(C(F)(F)F)C(F)(F)F,23.8
28,O=C(NCCCNC(=O)c1ccccc1)c1ccccc1,0.548

row,SMILES,"hERG current change (%, negative = inhibition) at 10uM [%]"
1,CC1(OC(=O)C2CCCC2)C(=O)C=C2C=C(c3ccsc3)N(Cc3ccco3)C=C2C1=O (stereo not shown),-23.2
2,Cc1ccccc1C(=O)NC1CCN(CC(=O)Nc2ccccc2Cl)CC1,-14.4
3,CC(C)(C)c1ccc(C(=O)Nc2ccc(N3CCOCC3)cc2)cc1,-4.74
4,CC(C)[C@H](NC(=O)C1CCN(S(=O)(=O)c2ccccc2)CC1)C(=O)NCc1ccc(F)cc1,-8.26
5,Cc1cc2cc(CNC(=O)c3cc4ccccc4o3)ccc2n1C,7.58
6,COc1ccc(C(CC(=O)Nc2ncccc2C)N2Cc3ccccc3C2=O)cc1OC (stereo not shown),24.1
7,Cc1cc(SCCOc2ccc(Br)cc2)nc(N)n1,-3.59
8,C/C(=N/NC(=O)CNC(=O)COc1ccccc1)c1ccco1,-3.93
9,COc1ccc2cc(C(c3nnnn3CCc3ccccc3)N3CCCC(C)C3)c(=O)[nH]c2c1 (stereo not shown),-33.1
10,O=C(Nc1ccccc1)/C(=C1\CCCN1)[N+](=O)[O-],-0.153
11,CCCC(=O)C1=C(O)C(C(=O)OC)C(C)(C)CC1=NC(C)C (stereo not shown),15.1
12,CCOC(=O)c1ccc(NC(=O)c2cn(-c3ccccc3)nc2-c2ccncc2)cc1,-48
13,O=C(Nc1ccccc1C(=O)NCCc1ccccc1)c1ccco1,-15.5
14,Cc1cccc(NC(=O)CSc2ccc(C(N)=O)cc2[N+](=O)[O-])c1C,2.09
15,O=C(Nc1ccc2c(c1)C(=O)N(CC1CCCO1)C2=O)c1ccccc1Br (stereo not shown),2.03
16,Cc1cc(N2CCOCC2)n2nc(C(F)(F)F)c(-c3ccccc3)c2n1,12.7
17,COc1ccc(C(C)=O)cc1CSc1ccc2c(c1)OCCO2,-2.43
18,COCCSc1nc(N)c2c3c(sc2n1)CN(C)CC3,-9.41
19,O=C(CSc1nnc(-c2cccnc2)s1)Nc1ccnc2ccccc12,-4.36
20,CCOC(=O)c1nn(-c2ccccc2)c(=O)c2c(N)scc12,1.16
21,O=C(c1cc(=O)[nH]c2ccc(Br)cc12)N1CCC2(CC1)OCCO2,12.6
22,COc1ccc(S(=O)(=O)N2CCOC2CNC(=O)C(=O)NCCCN2CCOCC2)cc1 (stereo not shown),13.5
23,Cc1ccccc1NC(=O)c1nc(S(C)(=O)=O)ncc1Cl,13.8
24,Cc1cc(C)n2ncc(C(=O)NC3CCCCC3)c2n1,-0.842
25,CCN(C(=O)Nc1ccccc1OC)c1c(N)n(Cc2ccccc2)c(=O)[nH]c1=O,14
26,COCC(C)NC(=O)/C=C/c1ccc(OC)cc1 (stereo not shown),9.71
27,CN(C)CCCN(C(=O)CCSc1ccccc1)c1nc2cc3c(cc2s1)OCO3.Cl,-48.2
